Results as given in PubChem BioAssay AID686979 (National Center for Advancing Translational Sciences (NCATS), 2013).
The campaign covered roughly 420,000 compounds. About 50,000 (12%) were called active. The inconclusive results got no clear call from the source; some entries with a clear call stand among them for comparison. Calls follow the shape of the dose curve; as a rule, active = well fitted inhibition curve with a large enough effect; inconclusive = small, poorly fitted or top-dose-only effect; inactive = flat fitted curve, though single readings scatter. No potency is given beside an inconclusive call; the fits are too rough.

Assay: qHTS for Inhibitors of human tyrosyl-DNA phosphodiesterase 1 (TDP1): qHTS in cells in presence of CPT; also: nearly all actives have a fitted effect of over 55% in size
Conditions: chicken DT40 Tdp1-/-;hTDP1 cells + 20 nM CPT, ATP luminescence, 48 h; activity change, negative = growth inhibition: at 46.2 µM (top of the series) unless noted
Method in brief: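 Chicken DT40 Tdp1-/- cells stably complemented with human TDP1 were seeded at 400 cells/well in medium containing 20 nM camptothecin, exposed to pin-transferred compounds, and grown at 37 °C for at least 48 hr. Viability was read as ATP luminescence.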
% is scaled to controls: 0 for no effect and ±100 for the full control effect; potency is read from the fitted curve at half-maximal effect; tags tell the direction and shape of the fitted curve.

Compound | Potency | activity change, negative = growth inhibition
Cc1ccc(-c2nc3cc(Cl)ccc3o2)cc1 | inactive | 
COc1ccc(NC(=O)C[C@H]2C(=O)N(CCc3ccccc3)C[C@@H]2c2ccc(OC)cc2)cc1 | inconclusive [inhibitor, single point] | 
C/C(=N/OC(=O)c1cccc(C(F)(F)F)c1)c1cnccn1 | inactive | 
CCCC(=O)Nc1ccc(C(=O)Nc2nnc(COCC)s2)cc1 | inactive | 
CC(=O)C1=CCC(c2ccc(Cl)cc2)N(S(=O)(=O)c2ccc(C)cc2)C1 (stereo unspecified) | inconclusive [inhibitor, single point] | 
Cc1cc([N+](=O)[O-])nn1CCCC(=O)NCc1ccccc1 |  | inconclusive: -9.28% [inhibitor]
COc1ccccc1N1CCN(/N=C/c2ccc([N+](=O)[O-])cc2)CC1 | inconclusive [inhibitor, single point] | 
CNC(=O)COC(=O)/C=C/c1ccco1 | inactive | 
CCc1ccc(NC(=O)C2CCN(C(=O)[C@@H]3Cc4ccccc4CN3)CC2)cc1 | inconclusive [inhibitor, single point] | 
COc1ccc(C2=C(C(C)=O)Sc3nnc(-c4ccccc4)n3N2C(C)=O)cc1 | inconclusive [inhibitor, single point] | 
O=C(Cc1ccc(Br)cc1)NC1CCN(Cc2ccccc2)CC1 | inconclusive [inhibitor, single point] | 
CCCc1[nH]nc2c1C(c1cn[nH]c1-c1ccc(F)cc1)C(C#N)=C(N)O2 (stereo unspecified) | active: 9.2 µM | 
Cc1ccc(-c2noc(CSc3nnnn3C3CCCCC3)n2)cc1 | active: 20.6 µM | 
CCCCC[C@@H](C)N1C[C@@H](COCc2ccccc2)Oc2cc(N3CC[C@H](O)C3)ccc2S1(=O)=O | inconclusive [inhibitor, single point] | 
COc1cc(NC(=O)c2cc3cc4cc(OC)ccc4nc3o2)cc(OC)c1 | inactive | 
O=C(NC(=S)Nc1ccc(O)cc1)c1ccccc1Cl | inactive | 
CC(=O)Nc1cccc(-c2cc(NC(C)=O)c3ncc(-c4ccccc4)n3c2)c1 | inconclusive [inhibitor, single point] | 
CC(C)(C)C(=O)NC(Nc1cccc2cccnc12)C(Cl)(Cl)Cl (stereo unspecified) | inconclusive [inhibitor, single point] | 
Fc1ccc(Cc2cn3cc(-c4ccc(F)cc4)nc3s2)cc1 | inconclusive [inhibitor, single point] | 
CC1(C)CNC(=O)c2sc(N3CCOCC3)nc2C1 | active: 8.2 µM | 
Cc1n[nH]c(=S)n(/N=C/c2cccs2)c1=O | inconclusive [inhibitor, full curve] | 
O=C(CSc1nc(C2CC2)nc2ccccc12)Nc1ccccc1N1CCOCC1 | inconclusive [inhibitor, single point] | 
O=C1CCCN1c1ccc(C(=O)N(Cc2nnc(-c3ccc(Cl)cc3)o2)C2CC2)cc1 | inconclusive [inhibitor, partial curve] | 
O=C1CN(C(=O)/C=C/c2cc(Br)ccc2F)CCN1 | inactive | 

Compound | Potency | activity change, negative = growth inhibition
O=C(Nc1cc(Sc2ccccn2)cc([N+](=O)[O-])c1)c1cccc(Cl)c1 | inconclusive [inhibitor, single point] | 
CCOC(=O)N1CCN(S(=O)(=O)c2ccc(OC)c(Br)c2)CC1 | inactive | 
Cc1[nH]n(C(N)=S)c(=O)c1C(c1ccccc1)C(C#N)C#N (stereo unspecified) | active: 1.46 µM | 
COc1cc(-c2cc(-c3ccc(F)cc3)nc(N)c2C#N)ccc1O |  | inconclusive: -30.7% [inhibitor]
CC(=O)NCCc1nc2ccccc2n1CCOc1ccccc1C | inconclusive [inhibitor, single point] | 
Cc1cc(C)c(C(=O)COC(=O)C2CCN(c3ccc(C(F)(F)F)cn3)CC2)cc1C | inconclusive [inhibitor, single point] | 
CCCCNC(=O)NS(=O)(=O)c1ccc(N)cc1 | inactive | 
Cc1c(OCC(=O)NC2CC(C)(C)NC(C)(C)C2)ccc2c3c(c(=O)oc12)CCC3 | inconclusive [inhibitor, single point] | 
CC1=C(C(=O)OCc2ccccc2)C(c2cccnc2)c2c(n(C)c(=O)n(C)c2=O)N1 (stereo unspecified) |  | inconclusive: -25.7% [inhibitor]
COc1cc(/C=C2\CC/C(=C\c3cc(OC)c(OC)c(OC)c3)C2=O)cc(OC)c1OC | inconclusive [inhibitor, partial curve] | 
COc1ccc(NC(=S)Nc2ccc(F)cc2)cc1 | inconclusive [inhibitor, single point] | 
O=C(NCC1CCN(Cc2ccccc2F)CC1)Nc1cccc(Br)c1 | inconclusive [inhibitor, single point] | 
Cc1nccn1CC(=O)N/N=C/c1ccccc1O | inconclusive [inhibitor, single point] | 
CC(C)C[C@H](NC(=O)c1nc[nH]c1C(=O)NCC(=O)OC(C)(C)C)C(=O)OCc1ccccc1 | inconclusive [inhibitor, single point] | 
O=C(NCCOc1ccc(Cl)cc1)c1cccc(S(=O)(=O)N2CCCC2)c1 | inconclusive [inhibitor, partial curve] | 
Cc1ccc(-n2nc(CO)c(C(=O)NC(C)c3ccccc3)n2)cc1C (stereo unspecified) | inconclusive [inhibitor, single point] | 
Cc1ccc(CCNC(=O)c2ccc(CSc3nc4ccncc4n3Cc3ccc(F)cc3)cc2)cc1 | active: 16.4 µM | 
CCCCCCOc1ccc(N2C(=O)CC(N3CCC(C(=O)OCC)CC3)C2=O)cc1 (stereo unspecified) | inconclusive [inhibitor, partial curve, poor fit] | 
CCCCOc1ccc(S(=O)(=O)NC(=O)C2(C)CCN2C(=O)Cc2ccccc2Cl)cc1 (stereo unspecified) | inconclusive [inhibitor, partial curve] | 
CC(CCc1ccccc1)NC(=O)c1ccc(C(=O)NC(C)CCc2ccccc2)cc1 (stereo unspecified) |  | inconclusive: -31.6% [inhibitor]
O=C(Nc1ccc(F)cc1F)c1cc(-c2ccc3c(c2)OCO3)on1 | inactive | 
COCCNC(=O)c1cccc(S(=O)(=O)N2CC3(C)CC2CC(C)(C)C3)c1 (stereo unspecified) | inactive | 
CCCCCOc1ccc(NC(=O)CSc2cccc3cccnc23)cc1 | inconclusive [inhibitor, single point] | 
O=S1(=O)CC(N2CCN(CCO)CC2)CN1C1CCCC1 (stereo unspecified) | inactive | 

Compound | Potency | activity change, negative = growth inhibition
Cc1ccc(-c2nnc(Nc3ccc(O)cc3)c3ccccc23)cc1S(=O)(=O)NCCO |  | inconclusive: -32.2% [inhibitor]
COc1ccc(Cl)cc1C(=O)Nn1c(-c2cccs2)nc2ccccc2c1=O | active: 10.3 µM | 
Cc1cc(C(=O)CCC(=O)Nc2cccc(F)c2)c(C)s1 | inconclusive [inhibitor, single point] | 
Cc1cccc(OCC(=O)Nc2cccc(-c3nc4ccccc4s3)c2)c1 | inconclusive [inhibitor, single point] | 
CC(=O)c1cc(-c2ccc(F)cc2)n(CCC(=O)NC2CCCCC2)c1C | inconclusive [inhibitor, single point] | 
CC(C)Cc1nc2sc3c(c2c(=O)n1N)CC(C(C)C)OC3 (stereo unspecified) | active: 16.4 µM | 
CSc1nc(=S)n(-c2ccc([N+](=O)[O-])cc2)c(C)c1C(C)=O | inactive | 
CC(C)(C)c1cc(NCCCn2ccnc2)n2ncc(-c3ccc(Cl)cc3)c2n1 | inconclusive [inhibitor, single point] | 
Cc1c(N)cccc1-c1nc2ccccc2[nH]1 | inactive | 
CCC(=O)n1nc(-c2ccc(Cl)cc2)nc1N | inactive | 
O=C(Nc1nc2ccccc2n1Cc1ccccc1)c1ccc(COc2ccccc2[N+](=O)[O-])o1 | inconclusive [inhibitor, single point] | 
COC(=O)c1ccccc1NC(=O)CCc1c(C)nc2cc(-c3ccc(Cl)cc3)nn2c1C |  | inconclusive: -21% [inhibitor]
COc1ccc(C(=O)N=C2CCC(C#N)=C3c4cc(OC)c(OC)cc4CCN23)cc1 | inconclusive [inhibitor, single point] | 
CCn1cc([N+](=O)[O-])c(=O)c2cc(F)c(N3CCOCC3)cc21 | inconclusive [inhibitor, partial curve] | 
COc1cc(C(=O)OCC(=O)NCC2CCCO2)cc(OC)c1OC (stereo unspecified) | inactive | 
O=[N+]([O-])c1ccc(-c2c[nH]c(=S)[nH]2)cc1 | active: 16.4 µM | 
CCCc1nc(SCC(=O)N2CCCc3ccccc32)c2c(=O)n(C)c(=O)n(C)c2n1 | active: 25.9 µM | 
CC(C)CNc1cc(NC2CCCCC2)c2c3c(onc13)-c1ccccc1C2=O | inconclusive [inhibitor, single point] | 
O=C(c1cccc(S(=O)(=O)N2CCCC2)c1)N1CCCc2ccccc21 | inconclusive [inhibitor, partial curve] | 
O=C(OCC(=O)N1CCN(C(=O)c2ccco2)CC1)c1cccc(F)c1 | inactive | 
COc1ccccc1C1C(C(C)=O)=C(C)N=c2s/c(=C\c3cc(OC)c(OC)c(OC)c3)c(=O)n21 (stereo unspecified) | active: 16.4 µM | 
COC(=O)CNC(=O)CSc1nc2sc(-c3ccccc3)cc2c(=O)n1-c1ccccc1 | inconclusive [inhibitor, single point] | 
Cc1cccc(N=c2oc3cc(O)ccc3cc2C(N)=O)c1 | inconclusive [inhibitor, partial curve] | 
